From the supplement of paper PMC12217912
The list shows a part of the results. The full chains were built here from the parent and the listed change. Values near 0.05 are background.

B1: TEV protease; numbered along this chain (parent)
chain: MGESLFKGPRDYNPISSSICHLTNESDGHTTSLYGIGFGPFIITNKHLFRRNNGTLVVQSLHGVFKVKDTTTLQQHLVDGRDMIIIRMPKDFPPFPQKLKFREPQREERICLVTTNFQTKSMSSMVSDTSCTFPSGDGIFWKHWIQTKDGQCGSPLVSTRDGFIVGIHSASNFTNTNNYFTSVPKNFMELLTNQEAQQWVSGWRLNADSVLWGGHKVFMVKPEEPFQPVKEATQL

Variants of: B1
Test: raw area under fraction-flipped curve 0-4 h after induction (AUC4h, not background-subtracted), DNA-recorder readout of cleavage of the substrate (dimensionless); higher = more cleavage of the substrate by the protease variant
Settings: temperature: 34 °C; time window: 0-4 h after rhamnose induction
Method: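 In vivo DNA recorder in E. coli TOP10(DE3) ΔrhaA at 34 °C. Each TEVp single-site mutant (parent TEVp 0) is paired with a single-site variant of the 7-mer TEVs (canonical ENLYFQ|S). The substrate sits between flexible linkers in a Bxb1-sfGFP-TEVs-SsrA fusion, so cleavage stabilises Bxb1 and speeds flipping of a recombination array, read by NGS. The value is the raw area under the fraction-flipped curve over 0-4 h after rhamnose induction (AUC4h), with ≥20 reads per time point. It is not background-subtracted; inactive controls average about 0.047.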
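Further: Bxb1 expression induced with 0.2% (w/v) L-rhamnose at OD600 near 0.5, cultures sampled hourly, flipped fraction per protease–substrate barcode pair counted by paired-end Illumina sequencing.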

Row | Variant | area with substrate ANLYFQS | area with substrate CNLYFQS | area with substrate DNLYFQS | area with substrate HNLYFQS | area with substrate INLYFQS | area with substrate KNLYFQS | area with substrate MNLYFQS | area with substrate NNLYFQS | area with substrate PNLYFQS | area with substrate RNLYFQS | area with substrate VNLYFQS | area with substrate WNLYFQS | area with substrate YNLYFQS | area with substrate GNLYFQS | area with substrate LNLYFQS | area with substrate QNLYFQS | area with substrate SNLYFQS | area with substrate TNLYFQS | area with substrate FNLYFQS
1 | D137L | 0.0809 | 0.0681 | 0.0719 | 0.0644 | 0.0674 | 0.0733 | 0.0743 | 0.0613 | 0.0716 | 0.064 | 0.0458 | 0.0593 | 0.0468 | – | – | – | – | – | –
2 | F117H | 0.0589 | 0.0702 | 0.0842 | 0.0639 | 0.0625 | 0.0482 | 0.0762 | 0.0734 | 0.0619 | – | – | 0.0638 | 0.0669 | 0.0532 | 0.0609 | 0.0933 | 0.059 | 0.0709 | –
3 | V57L | 0.072 | 0.0646 | 0.0955 | – | 0.0852 | – | – | 0.0705 | – | – | 0.0782 | 0.0941 | 0.055 | – | 0.0733 | – | 0.0595 | – | –
4 | S124W | 0.11 | 0.102 | 0.0632 | 0.0592 | – | – | 0.0787 | 0.0819 | 0.0784 | – | – | 0.0503 | 0.0551 | 0.0622 | 0.0604 | – | – | 0.064 | 0.0718
5 | I36R | 0.0497 | 0.0471 | 0.0537 | 0.0395 | – | 0.0393 | – | – | 0.0447 | – | 0.0776 | 0.0454 | – | – | 0.0437 | 0.0487 | 0.0495 | 0.0439 | 0.0403
6 | C152S | 0.052 | 0.057 | 0.0823 | 0.0608 | 0.0522 | 0.0586 | 0.0588 | 0.0506 | 0.0418 | – | – | 0.0507 | – | – | 0.0621 | – | – | 0.0588 | –
7 | N13K | 0.0662 | 0.0565 | 0.0643 | 0.0565 | 0.0463 | 0.0754 | – | 0.0596 | 0.0764 | – | 0.0577 | 0.0557 | – | 0.059 | 0.0646 | – | 0.0598 | 0.0768 | 0.0547
8 | G63Q | 0.0552 | 0.063 | 0.0839 | 0.0709 | 0.0616 | 0.0554 | – | 0.0645 | 0.0671 | – | 0.0749 | 0.0674 | 0.0694 | 0.0591 | 0.0512 | – | 0.0612 | 0.0629 | –
9 | L33P | 0.0471 | 0.0484 | 0.0697 | 0.0464 | 0.0411 | 0.0436 | – | 0.0378 | 0.05 | 0.0751 | – | 0.0581 | – | – | 0.0487 | – | 0.0564 | 0.0494 | 0.0156
10 | H62F | 0.083 | 0.0833 | 0.0833 | 0.0597 | 0.0705 | 0.0642 | 0.0636 | 0.0786 | – | – | – | 0.0518 | – | – | – | 0.0733 | 0.0839 | 0.0547 | 0.0639
11 | H143A | 0.0741 | 0.067 | 0.0759 | 0.0608 | 0.0664 | 0.0623 | 0.0667 | 0.0667 | 0.0659 | 0.0827 | 0.0625 | 0.0487 | 0.0611 | 0.0567 | 0.0726 | 0.0644 | 0.0596 | 0.07 | 0.131
12 | P225I | 0.0624 | 0.0561 | 0.0577 | 0.0596 | 0.0455 | 0.0515 | – | – | 0.0693 | – | 0.0514 | – | 0.0464 | 0.056 | 0.0532 | – | 0.0645 | 0.0658 | –
13 | V183T | 0.0743 | 0.0728 | 0.0688 | 0.0641 | 0.066 | – | – | 0.0665 | 0.0711 | – | – | 0.0607 | 0.0612 | 0.0719 | 0.0713 | 0.0757 | 0.0353 | 0.0674 | –
14 | Y12H | 0.0647 | 0.0851 | 0.0767 | 0.0667 | – | 0.041 | 0.0711 | – | 0.0611 | 0.0673 | – | 0.0679 | 0.0756 | – | 0.0703 | – | 0.0717 | 0.0809 | 0.0534
15 | F133E | 0.087 | 0.0622 | 0.0898 | 0.0785 | – | 0.0644 | 0.0644 | 0.0804 | 0.0626 | – | 0.0554 | 0.0624 | 0.0659 | – | 0.0604 | – | 0.0451 | 0.0626 | –
16 | G28C | 0.0627 | 0.0601 | 0.0735 | 0.0689 | 0.0401 | – | – | – | 0.0545 | – | 0.0653 | 0.0636 | – | – | – | – | – | 0.0585 | 0.0601
17 | K148G | 0.0534 | 0.0656 | 0.0584 | 0.0633 | 0.0613 | – | 0.0511 | 0.0635 | 0.0533 | 0.0721 | 0.0614 | 0.0501 | 0.058 | 0.0653 | 0.0713 | – | 0.0565 | 0.0591 | 0.0267
18 | V126F | 0.0573 | 0.078 | 0.0793 | 0.0685 | 0.0465 | 0.0743 | 0.0707 | – | 0.08 | 0.0569 | 0.0644 | 0.05 | – | 0.067 | 0.0646 | – | 0.0803 | 0.0675 | 0.0595
19 | F180L | 0.0591 | 0.0725 | 0.0654 | 0.0626 | 0.0653 | – | 0.0654 | 0.0506 | – | – | – | 0.0519 | 0.0762 | – | – | – | 0.071 | 0.0528 | 0.0697
20 | L22W | 0.0649 | 0.0346 | 0.044 | 0.0197 | – | – | – | 0.0734 | 0.0509 | – | – | 0.0434 | 0.0376 | 0.0497 | 0.0471 | – | 0.0386 | – | 0.0396
21 | M219V | 0.0593 | 0.0606 | 0.0787 | 0.0716 | 0.047 | 0.0667 | 0.0572 | 0.0661 | 0.066 | 0.0477 | – | 0.0528 | 0.0593 | 0.073 | 0.0343 | – | 0.085 | 0.0626 | 0.0708
22 | I145D | 0.07 | 0.052 | 0.0409 | 0.0528 | 0.055 | 0.084 | 0.059 | 0.0587 | 0.0523 | – | – | 0.0289 | – | 0.0501 | – | 0.0598 | 0.0479 | 0.0409 | –
23 | F140K | 0.0496 | 0.0548 | 0.0663 | – | – | – | – | 0.0627 | 0.0677 | – | 0.0897 | – | – | – | 0.064 | – | 0.0717 | 0.0653 | –
24 | V126N | 0.0488 | 0.0595 | 0.0867 | 0.0542 | 0.0626 | 0.076 | – | – | 0.0909 | – | – | 0.0479 | 0.0542 | 0.0684 | 0.0594 | – | 0.0809 | 0.0735 | –
25 | W203Y | 0.0611 | 0.0731 | 0.07 | 0.0599 | – | – | – | – | 0.0588 | – | – | – | 0.0578 | 0.0612 | 0.0593 | – | 0.0631 | – | 0.0643
26 | C20R | 0.0179 | 0.0257 | 0.0616 | 0.0399 | – | 0.0534 | – | 0.0498 | 0.0457 | 0.0336 | 0.043 | 0.0345 | – | 0.054 | 0.0542 | – | 0.0473 | 0.0472 | –
